Experimental data: the supplement of paper PMC12632987
In all, about 4,500 sequences were measured (“median log2 fold change of GCK-ALFA target abundance (FLAG IP / Myc IP barcode read proportion)”: median about 0.078, lowest 2% from about -0.6 on). The list shows a part of the results.

B1: GBRAP_128_3332 (protein)
chain: MNEERLERAKELAEELKKADVEEARKLTREIVRLMGEASEEEREEIAKIFEEALKKLSAEKLEAVADVLREERPKLDPLTQEYVNDLEVEALNLAEEKEE
B2: GBRAP_160_4164 (protein)
chain: EEEAEKLIEEIDEITKEAIELIEGESIEQRAVIVDGEFGEIIMTLFESPVVSDEVVDLADKLRDELVEWLKENPDASLEEIKAKIEEVRDKIIEAVKKDA
B3: GBRAP_78_6601 (protein)
chain: EVEELLDRALELIGEAARLAQQLDPETQNEVLDHLVDAASDLVESEEPEGRLEHLKEALEHLEKALELVKASDSPAAPELAKVLEEAIELVKEAIKLLEE
B4: GBRAP_160_4452 (protein)
chain: SEELEKLKKEIDELRKRAKELIEGQTHEERVTVVAVEFGELILELSSEESVSDELEDEVAKIVDELVETLKANPDLTEEEVKKLIDEAAEKIKKALEKYL
B5: GBRAP_184_5345 (protein)
chain: MIASVTITAEEWKADPEAQLARVREALADPSVDTLVVILEDLSFEDALEAIERIGKLAKEAGFKNLIVHVDSELTEEEIDKLIEAADKYGIKLVVAIRDE
B6: GBRAP_137_3670 (protein)
chain: MIRVEVELENGLAFARITVEGSPEELERAAEIAEDIAGEIPDLAVSVKLTEEGRLEIDVFGTPESVEAFLRRLAERLDRTVEVTTRDEETGEVRRRVIRP
B7: GBRAP_160_4847 (protein)
chain: EEKKKRIREEFNKAREFVLSLIPEVTVEQLAAAFRAEIGTTALELLEEGVINEEAEDVALEGADEAEAALLAAADATPEELKALITEKVEEIIKKVEEKL
B8: GBRAP_160_4309 (protein)
chain: SEELEKLKEEIKEIAEEAIEMIEGQSAEQQKTIVKVTLGEIILLAFENPAISDELEDEIIKIADEAEKKLDANPDLTEEEIKELLKETVKKILELIEKSE
B9: GBRAP_184_5343 (protein)
chain: KTIEVHIENLSLEEMVKEAEKAAKKAAEQGADLLISIDAEGLSDEELVELVERIGEIAKKLGVKNLTIGIDKAVDEETADKLIEVADKYGIKLTIALEDE
B10: GBRAP_160_4839 (protein)
chain: SEKEKAVEERLEEARDEVLSLVDEVTVEQLANFYDVEINSVLLELREEGYINEEAEDVGLEIVDKGVADLLAAADATPEEIRAIIERHTKELIEAIKKLL
B11: GBRAP_137_3642 (protein)
chain: ANVTITTKTIDDLVEITVRYDDPEKAEEVAELIRDIAAEHGALAISIEIKEDGTLEAVVWIPKEKAEAFLEALIKALQTEFGANVTVIDEDTGETKVYKA
B12: GBRAP_166_4923 (protein)
chain: GTEEKVEKARKELKKVIEEGKADPSLTKGQITAAMAYKTAEMLKEEEDRETKLAIVEEALKLAKEEGLDPRRLATLTASLYGFSDEEIDEIDEITEKILA
B13: GBRAP_43_5761 (protein)
chain: SKELVEGALDFALLALEEPEISEETKVKAIKAAFDLAADEGYMDEEKVLEVIKAAGKSLSKEELEKLAKHLEELAKKYPELKEVLDKALKILEEAIKKKK
B14: GBRAP_52_6366 (protein)
chain: DLEEAVKLLREAVKAVLEGKEEEAEKILKEIVENFSEETILEAARRLAEELLEKSLEEAEAFLEAAIMLADILEEAGKSEVVGDEIEAIAARTLMEIRER
B15: GBRAP_128_3250 (protein)
chain: PNPEVVAYAEEFVDRLVAADEEEARRIAEEFAEYLLTISTEEAEVAIEVVEERLHLLSPEHLDILADVLREHRPRFSPEKANLVAGLEVAALNEREELEE
B16: GBRAP_122_2943 (protein)
chain: AATAARLQALIDAMVAALDAGDDAALQALADELVALFDTISPEEAVAAVQALLAAVADNPEKRERALQALIAAFAKHQPLTPAQEAAADVVAEAFDELSE
B17: GBRAP_14_3837 (protein)
chain: MEEIKKILEETAKEIAKDLSELAGLDEEEVKKRLLEIVKKALELYEKTGDIEKALEYFEEESLKLVKELLKDKSPELQAEALAIVRVEIGEARLEIEELL
B18: GBRAP_52_5977 (protein)
chain: MEEEARRIAEELVRLRLAGDEEGAEKLIKEVVETKSEEFIEKVLEALAEMAKTADPATLDAIVDVALMLEDAALEAGFDEARVEAGVARVAAAAVAALAA
B19: GBRAP_137_3627 (protein)
chain: ATVTIELRRYEDVVEITITLDDPEKAEAAAELVEDVAHEEGALAVSIELEEDGTLVVEVWVPRDKAEALLARLVERLTTELGATVVIRDLDTGEVRVVTP
B20: GBRAP_52_6266 (protein)
chain: MREELREQVEEIFELVKEGKLEEARKLARELVESLNEEELELFIKELAEFAKTISKEEIPYAEKTVEIIAEEMEKAGVPEELVSLFEAEAYGALYEREKK
B21: GBRAP_78_6618 (protein)
chain: EKKEEIIKLLEKAEELMREIRKREPEVADLAAEAAVLAGTALLMVDTGEESKEEIIKELEEALEQAKKLLKELEGKNEESKKLAKEAIKNLKEALKLVKE
B22: GBRAP_52_5904 (protein)
chain: MREELRAQVEEMLALVRAGDLEGARALAREIAETLNDEELRLLIEEVAALVREAPLEELPAWWRLAEIMAEAFEEAGKDEVLADDLLAATAAAIHERLQR
B23: GBRAP_160_4792 (protein)
chain: DERVEKVAKRFRESLEEALKLAEGESNENRVNIFDVELGSTILELIEEGLLNDEEEEVAIEVRDELVEKIRANPDLTEEELRKLAEEAVKELRERLKKLR
B24: GBRAP_128_3277 (protein)
chain: MNEEIVKKARDFVEKLKAANKEEAKKIAEEFADWLGSISTEEAEQAVDVIIKELHKLTKEQLEILADVLEEKRDEFDPEKANLVADLQVEALNEAEEKEE
B25: GBRAP_52_6104 (protein)
chain: MREELRRRVLEILELVKAGKLEEARRRIEELVEELDDEELRLVAEELAEVAREAAPEDLDAVWRLAEMLAEALEEAGKDEVLVDYLLSSTAAALYEREQA
B26: GBRAP_125_3104 (protein)
chain: SEEELLEDLKALALALGFSEEDAEEAARLAAEFSLKNTLIAILLAEGEEELAELVEKLTEEQAKEVLKKLAEYLKKHPNATKEEVIEKFKELVEEALAKS
B27: GBRAP_160_4329 (protein)
chain: SEEFEKLIEFIDEEFEETKELIKGLSLEQVKVLIEGTFGEIIMEMSENESISDELVDFVVAERDALLATLDANPDLSEEEIKALIDEARERIKEALKKEA
B28: GBRAP_160_4086 (protein)
chain: SAAAKALIKEVQEIFDEAIEMMKDVSVEEAVNIALVALGEVALLIEEAEFLSEADKDALLALIDAGEAAIRAAADKSVEDIIALLQAFRDEIVAAIEAAD
B29: GBRAP_52_6297 (protein)
chain: MREEARRIARELVELAKAGDREGLERKVREIVETKSEEFLRLIAEELAEMAARADEETIDVIFEVMELLADEMIEGGYDEAFAEDLLARVARAGYENELR

Biological target: GABARAP, O95166
Assay: median log2 fold change of GCK-ALFA target abundance (FLAG IP / Myc IP barcode read proportion) (log2 ratio); each designed protein is fused to an ALFA-tag nanobody in HEK293 cells to bring the named protein to FLAG-tagged glucokinase (GCK); Myc marks an untargeted standard; higher = target protein stabilised (more abundant)
Conditions: target protein: 3xFLAG-MCP-GCK-ALFA reporter; HEK293 landing pad (RPLP)
Procedure, shortened: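 An ALFA-nanobody-fused binder library was recombined into HEK293 landing-pad cells and induced with 2 μg mL^−1 doxycycline. Cells were transfected with a plasmid expressing a FLAG-tagged target and a Myc-tagged standard. After 48 h, lysates underwent anti-FLAG and anti-Myc immunoprecipitation, and circular RNA barcodes were reverse transcribed, amplified and sequenced. Target abundance is the per-binder median log2 ratio of FLAG to Myc barcode read proportions. Barcodes needed ≥10^−7 proportion in both replicates, binders ≥3 barcodes per replicate, and a 10^−6 pseudocount was added; the two replicates were pooled.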

GABARAP, O95166, sequence (O95166 whole entry, the tested form may be a part): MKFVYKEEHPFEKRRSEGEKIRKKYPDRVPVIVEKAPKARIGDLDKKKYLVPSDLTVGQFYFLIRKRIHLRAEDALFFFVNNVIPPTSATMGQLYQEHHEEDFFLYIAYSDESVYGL

Binder	median log2 fold change
B1	0.405
B2	0.0193
B3	0.207
B4	0.206
B5	0.27
B6	0.0906
B7	0.256
B8	-0.155
B9	0.0617
B10	-0.0133
B11	0.255
B12	0.22
B13	0.219
B14	-0.214
B15	0.123
B16	0.334
B17	0.159
B18	-0.178
B19	-0.0361
B20	0.0302
B21	0.306
B22	-0.644
B23	0.0289
B24	0.254
B25	0.065
B26	-0.801
B27	-0.22
B28	0.000671
B29	-0.247
